# Out of some 310,000 compounds screened, about 2,200 (0.71%) showed an effect of 50% or more. The effect is printed as a negative number. The list shows a part of the results.
# Molecular target: human ether-à-go-go-related gene (hERG) potassium channel (human, UniProt Q12809)
# Experiment: primary screen, population patch clamp on CHO cells stably expressing hERG
# human ether-à-go-go-related gene (hERG) potassium channel, sequence (Q12809 whole entry, looked up): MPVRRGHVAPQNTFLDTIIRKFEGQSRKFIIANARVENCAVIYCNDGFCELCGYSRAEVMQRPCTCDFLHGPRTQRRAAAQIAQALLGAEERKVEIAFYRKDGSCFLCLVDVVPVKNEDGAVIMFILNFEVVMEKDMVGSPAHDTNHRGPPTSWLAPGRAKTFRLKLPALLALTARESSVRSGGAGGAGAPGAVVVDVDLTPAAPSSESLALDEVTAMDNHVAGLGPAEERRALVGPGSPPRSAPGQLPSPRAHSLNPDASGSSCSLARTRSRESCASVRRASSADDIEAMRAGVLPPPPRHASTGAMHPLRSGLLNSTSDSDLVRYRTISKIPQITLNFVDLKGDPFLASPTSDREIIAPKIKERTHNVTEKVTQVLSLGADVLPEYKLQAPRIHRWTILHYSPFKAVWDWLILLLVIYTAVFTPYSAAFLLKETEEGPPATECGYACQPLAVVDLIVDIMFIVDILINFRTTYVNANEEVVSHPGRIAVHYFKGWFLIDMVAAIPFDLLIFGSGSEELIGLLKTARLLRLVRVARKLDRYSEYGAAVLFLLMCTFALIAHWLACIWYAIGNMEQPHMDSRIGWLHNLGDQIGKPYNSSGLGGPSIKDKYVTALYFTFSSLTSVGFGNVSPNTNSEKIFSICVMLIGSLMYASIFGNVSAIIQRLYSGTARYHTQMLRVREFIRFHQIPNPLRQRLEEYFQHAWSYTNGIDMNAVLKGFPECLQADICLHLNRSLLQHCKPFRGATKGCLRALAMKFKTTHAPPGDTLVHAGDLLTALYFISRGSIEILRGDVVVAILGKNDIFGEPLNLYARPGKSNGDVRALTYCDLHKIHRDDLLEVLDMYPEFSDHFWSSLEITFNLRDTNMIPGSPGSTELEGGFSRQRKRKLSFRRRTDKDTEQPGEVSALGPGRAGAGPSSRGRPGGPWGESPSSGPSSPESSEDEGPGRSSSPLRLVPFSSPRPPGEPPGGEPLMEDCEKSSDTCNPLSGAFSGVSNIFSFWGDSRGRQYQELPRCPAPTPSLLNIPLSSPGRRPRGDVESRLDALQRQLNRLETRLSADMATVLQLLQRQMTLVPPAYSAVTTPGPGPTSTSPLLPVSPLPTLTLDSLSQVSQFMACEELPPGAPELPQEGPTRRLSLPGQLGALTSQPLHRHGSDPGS
row,SMILES,"hERG current change (%, negative = inhibition) at 1uM [%]"
1,CC1CCCC(C)N1C(=O)CSc1nnc(-c2cccs2)o1 (centres unmarked),-3.22
2,CCOC(=O)c1c(C)nc2c(c1-c1ccccc1)C(=O)c1ccccc1-2,-5.75
3,O=c1c2ccccc2c(C=Nc2ccc(O)cc2)c(O)n1-c1nccs1,6.96
4,CCCCCc1ccc(OCCCC[n+]2ccc(C)cc2)c(CCCCC)c1.[Cl-],-21.7
5,CSc1nc(=S)c2[nH]c(=S)[nH]c2[nH]1,13.5
6,COc1ccccc1-c1oc2ccccc2c1C#CC1(N)CCCCC1,19.3
7,CC1=CC(C)(C)N(C(=O)Nc2ccccc2)c2ccccc21,5.89
8,Cc1ccc(-c2nnn(CC(=O)N3C(C)CCCC3C)n2)cc1 (centres unmarked),14.7
9,COCCN(CCOC)C(=O)CN1C(=O)NC(Cc2c[nH]c3ccccc23)C1=O (centres unmarked),5.75
10,COCCNC(=O)C1CC2Cn3c(nc4ccccc43)C2N1C (centres unmarked),14.9
11,COc1ccccc1C(=O)NNC(=O)c1cccc(Cl)c1,11.3
12,COc1cc2c(c(OC)c1OC)-c1c(cc3c(c1OC)OCO3)[C@@H](OC(C)=O)[C@H](C)[C@H](C)C2,0.0059
13,Cc1nnc(C)n1/N=C/c1ccc(-c2ccccc2)cc1,4.4
14,COc1cccc(C(C(=O)NC2CCCC2)N(C(=O)c2ccco2)c2ccccc2F)c1OC (centres unmarked),13.4
15,COc1ccc(C(=O)C[n+]2ccc(C)cc2)cc1.[Br-],13.3
16,C=CCn1c(=O)c2c(nc3n2CCS3)n(C)c1=O,10.2
17,COCCN(C(=O)CSc1nnc(-c2ccccc2OC)o1)c1c(N)n(CC(C)C)c(=O)[nH]c1=O,5.75
18,CCCCSc1nc(C)cc(SCC(=O)N/N=C/c2ccccc2)n1,8.91
19,Cc1ccc(N(Cc2ccccc2)C(=O)c2cc(S(=O)(=O)N3CCOCC3)ccc2C)cc1,0.412

row,SMILES,"hERG current change (%, negative = inhibition) at 1uM [%]"
1,CC(=O)Nc1nc2ccccc2n1CCN(C)C,3.11
2,O=C(Nc1ccc2[nH]c(=S)sc2c1)c1ccccc1,12.5
3,COc1ccc(-c2cnnc(N/N=C/c3c(C)nn(-c4ccccc4)c3Cl)n2)cc1,7.36
4,COc1cccc(NC(=O)CSc2nc3ccccc3c(=O)n2CCCC(=O)N2CCCC2)c1,-18.2
5,Cc1cc(C)n2nc(SCC3COc4ccccc4O3)nc2n1 (centres unmarked),5.88
6,Cc1c(F)cccc1NS(=O)(=O)c1ccc2c(c1)c(=O)n(C)c(=O)n2C,-0.593
7,CC1(c2nnc(-c3ccc(F)cc3)o2)CC(c2ccc([N+](=O)[O-])cc2)=NO1 (centres unmarked),-12.8
8,c1ccc(-c2nc3ccccc3nc2-c2ccccn2)nc1,-2.03
9,CS(=O)(=O)N(CC(=O)N/N=C/c1ccccn1)c1ccc(Oc2ccccc2)cc1,3.39
10,COC(=O)c1c(-c2ccccc2)csc1N,5.93
11,COc1cccc(C(=O)NCC(=O)N2CCC3(CC2)NCCc2[nH]cnc23)c1,7.34
12,CCN(CC)S(=O)(=O)c1ccc(N2CCOCC2)c(NC(=O)C2CCCC2)c1,4.5
13,CCOc1ccc(S(=O)(=O)Nc2cc(OC)c(OC)cc2C(=O)O)cc1,3.61
14,Cc1cccc(C)c1NC(=O)CN(C)C(=O)c1cc(S(=O)(=O)N(C)C)ccc1N1CCCC1,16.1
15,COC(=O)C1C(=O)c2c(C)noc2CC1(C)C (centres unmarked),16.8
16,CC(C)c1ccc(/C=C2\NC(=O)NC2=O)cc1,13.1
17,O=C1CCc2cc(S(=O)(=O)N3CCCCC3)cc3c2N1CCC3,11.3
18,CC1(NC(=O)c2cc(-c3cccs3)nn2-c2ccccc2)CCS(=O)(=O)C1 (centres unmarked),11.1
19,CCN(CC)C(=O)c1cn(C)c2ccc(S(=O)(=O)N(CC)CC)cc2c1=O,4.7

row,SMILES,"hERG current change (%, negative = inhibition) at 1uM [%]"
1,Cc1cc(OC(=O)c2ccc(S(=O)(=O)N(C)C)cc2)cc(=O)o1,7.63
2,COC(=O)c1c(SCc2ccc(C#N)cc2)nc(=O)[nH]c1C,-40.7
3,COC(=O)[C@]1(Cc2ccccc2)N[C@H](c2ccc(-c3ccc(Cl)c(Cl)c3)cc2)[C@@H]2C(=O)N(C)C(=O)[C@@H]21.O=C(O)C(F)(F)F,9.68
4,Cc1cc(S(=O)(=O)Nc2ccc(C(=O)NCCCn3ccnc3)cc2)ccc1F,10.4
5,Nc1nc2n(n1)C(c1ccccc1Cl)CC(c1ccc(F)cc1)N2 (centres unmarked),1.25
6,O=C(Cc1ccccc1)NC(NC(=S)Nc1cc(Cl)ccc1Cl)C(Cl)(Cl)Cl (centres unmarked),14.1
7,CC(=O)Nc1ccc(CCc2nc3ccccc3[nH]2)cc1,8.34
8,CCc1ccc(CN2CCCC(CNC(=O)c3cccc(OC)c3OC)C2)cc1 (centres unmarked),-7.29
9,CCC(=O)Oc1ccc(-c2cnc3ccccc3n2)cc1,14.2
10,Cc1cc(Cl)ccc1NC(=S)N(CCCN1CCOCC1)Cc1cccs1,3.91
11,CCN(CC)C(=O)c1c(-c2ccccc2)oc2ccc(O)cc12,17.1
12,O=C1C2C3C=CC([C@@H]2C(=O)N1C1CCCCC1)[C@H]1C(=O)N(C2CCCCC2)C(=O)C31 (some centres unmarked),1.92
13,CCn1ncc(-c2ccnc3cc(C(=O)O)nn23)c1C,14.8
14,Cc1[nH]c2ccc(-c3n[nH]c(=S)n3-c3ccccc3)cc2c1C,7
15,COc1ccc(C(=O)NC(=S)Nc2ccc3c4c(cccc24)CC3)cc1OC,20.9
16,CCCCOc1ccc(C(=O)NCCc2ccccc2)cc1,12.6
17,COc1cc(S(=O)(=O)NCC2CCCO2)ccc1Br (centres unmarked),2.81
18,N#CCCCSc1nnc(Cc2ccc3c(c2)OCO3)o1,15.9
